Data reported in the RNAGym collection of RNA variant scans (doi:10.1101/gad.245936.114).
This sample is rich in variants without activity.

B1: tRNA (parent)
chain: CUCUCGGUAGCCAAGUUGGUUUAAGGCGCAAGACUUUAAUUUAUCACUACGAAAUCUUGAGAUCGGGCGUUCGACUCGCCCCCGGGAGAUUUUUUCCUCGAGCAA

Variants of: B1
Assay: nonsense suppression (GFP-seq) (ratio to wild type); higher = more function; SUP4oc tRNA, yeast GFP reporter sort-seq
How it was run: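 To measure nonsense suppression, tRNA variants from a library carrying ~3% random mutations were integrated into the yeast genome alongside RFP and a GFP ochre reporter under galactose control. Growth took place in raffinose/galactose medium supplemented with 80 mg/L adenine, followed by sorting into GFP/RFP bins and Illumina sequencing of each bin (phred ≥30). For each variant with ≥100 reads and ≥30 cells, the bin median GFP/RFP values were weighted by its estimated cell share per bin and referenced to the unmutated parent tRNA.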

Variant	nonsense suppression
A24U U55C C82G C83A G88C	≤ 0.026
A24U U57C	≤ 0.026
A24U U58A G59A	≤ 0.026
A24U U58C	≤ 0.026
A24U U58G	≤ 0.026
A24U U63A	0.119
A24U U63C G65A U70G C83A A89C	≤ 0.026
A24U U70A	≤ 0.026
A24U U70C	≤ 0.026
A24U U70G	≤ 0.026
A24U U71A	≤ 0.026
A24U U76C	0.131
A24U U76G	≤ 0.026
G25A A30G U57C U63A	≤ 0.026
G25A A33G U71G	≤ 0.026
G25A A60C	≤ 0.026
G25A A60G G86C	≤ 0.026
G25A A62C A89C	≤ 0.026
G25A A62U	≤ 0.026
G25A C27U A33U U57G	≤ 0.026
G25A C27U C34U	≤ 0.026
G25A C34G	≤ 0.026
G25A C56G C79U	≤ 0.026
G25A C64G	≤ 0.026

Variant	nonsense suppression
G25A C77G	≤ 0.026
G25A C80G	≤ 0.026
G25A C81A G85C	≤ 0.026
G25A C83A	≤ 0.026
G25A G26C	≤ 0.026
G25A G26U G65A G67A	≤ 0.026
G25A G28A	≤ 0.026
G25A G28U	≤ 0.026
G25A G28U U57A C68U C75U	≤ 0.026
G25A G32A	≤ 0.026
G25A G32U U71G	≤ 0.026
G25A G59A	≤ 0.026
G25A G59C U76A	≤ 0.026
G25A G61U U70G	≤ 0.026
G25A G66U	≤ 0.026
G25A G66U C79G	≤ 0.026
G25A G69A C81U	≤ 0.026
G25A G73A	0.0508
G25A G78C	≤ 0.026
G25A G86C	≤ 0.026
G25A G86U	≤ 0.026
G25A U35C	≤ 0.026
G25A U35G U58A	≤ 0.026
G25A U55A	≤ 0.026

Variant	nonsense suppression
G25A U55C A62C U70A	≤ 0.026
G25A U55C A62U	≤ 0.026
G25A U58C A60G	≤ 0.026
G25A U71G A74U G78C	≤ 0.026
G25C A30G	≤ 0.026
G25C A30U	0.0299
G25C A31G	≤ 0.026
G25C A33C A89G	≤ 0.026
G25C A33U A62U	≤ 0.026
G25C A54G	≤ 0.026
G25C A60C A74G	≤ 0.026
G25C A62C U63G G86A	≤ 0.026
G25C A74U	≤ 0.026
G25C C27A A33G U35G C81A	≤ 0.026
G25C C27A A60G G67U	≤ 0.026
G25C C29A G78A A87G	≤ 0.026
G25C C34A A87U	≤ 0.026
G25C C34U U55A	≤ 0.026
G25C C56A	≤ 0.026
G25C C56U C81A	≤ 0.026
G25C C68A	≤ 0.026
G25C C75A	0.826
G25C C75A C83A A87G	≤ 0.026
G25C C77U C80G	≤ 0.026

Variant	nonsense suppression
G25C C79G	≤ 0.026
G25C C80G G84A	≤ 0.026
G25C G26C	≤ 0.026
G25C G28A U63A	≤ 0.026
G25C G28A U71A	≤ 0.026
G25C G28C	≤ 0.026
G25C G28C A62U	≤ 0.026
G25C G28U U76C	≤ 0.026
G25C G32C U57C	≤ 0.026
G25C G61A A62G	≤ 0.026
G25C G61A U63C	≤ 0.026
G25C G65A	≤ 0.026
G25C G66A U70G	≤ 0.026
G25C G67U C82A	≤ 0.026
G25C G78C C79G G86A	≤ 0.026
G25C G86A	≤ 0.026
G25C U35A	≤ 0.026
G25C U35C C80G G84A	≤ 0.026
G25C U35C G88A	≤ 0.026
G25C U58G C77U	≤ 0.026
G25C U63A G69C	≤ 0.026
G25C U63C G67C G84U	≤ 0.026
G25C U70A G85A	≤ 0.026
G25C U70C	≤ 0.026

Variant	nonsense suppression
G25C U71G	≤ 0.026
G25U A30C G69C U70A	≤ 0.026
G25U A30G U57A A74C	≤ 0.026
G25U A30G U70A A87C	≤ 0.026
G25U A31G A62U A74C	≤ 0.026
G25U A33C A87G	≤ 0.026
G25U A54U G78C	≤ 0.026
G25U A60C	≤ 0.026
G25U A60G G61A	≤ 0.026
G25U A60U C79U	≤ 0.026
G25U A74C	≤ 0.026
G25U A74G	≤ 0.026
G25U A87C	≤ 0.026
G25U A87U	≤ 0.026
G25U A89C	≤ 0.026
G25U C27G U63C	≤ 0.026
G25U C27G U71C	≤ 0.026
G25U C27U A33G	≤ 0.026
G25U C27U G84C	≤ 0.026
G25U C29G G65A	≤ 0.026
G25U C34A	≤ 0.026
G25U C34G C79G	≤ 0.026
G25U C34G G66U	≤ 0.026
G25U C56A G86U	≤ 0.026

Variant	nonsense suppression
G25U C64A C80U	≤ 0.026
G25U C64U C68A	≤ 0.026
G25U G26U	≤ 0.026
G25U G28U C29G C72G C81A	≤ 0.026
G25U G32C A54G C77U	≤ 0.026
G25U G59U U76G	≤ 0.026
G25U G61C G69A	≤ 0.026
G25U G61U C68U	≤ 0.026
G25U G61U U71C	≤ 0.026
G25U G66U	≤ 0.026
G25U G67A C72A	≤ 0.026
G25U G67C G86U	≤ 0.026
G25U G69C U70C	≤ 0.026
G25U G73A C79A G84U	≤ 0.026
G25U G73U	≤ 0.026
G25U G84A	≤ 0.026
G25U G84C	≤ 0.026
G25U G86C	≤ 0.026
G25U U35G G84C	≤ 0.026
G25U U55G G86A	≤ 0.026
G25U U57A C64A	≤ 0.026
G25U U57C C64U	≤ 0.026
G25U U57G G84A A87G A89C	≤ 0.026
G25U U58A	≤ 0.026

Variant	nonsense suppression
G25U U58C	≤ 0.026
G25U U58G C68G	≤ 0.026
G25U U63C C79A	≤ 0.026
G25U U63C U76G G85U	≤ 0.026
G25U U70C C72U G85C	≤ 0.026
G26A A30C	≤ 0.026
G26A A30U	≤ 0.026
G26A A31G	≤ 0.026
G26A A33G G84C	≤ 0.026
G26A A60C C82G	≤ 0.026
G26A A60U	≤ 0.026
G26A A62C U76A C81U	≤ 0.026
G26A A62U C82G	≤ 0.026
G26A C27A	≤ 0.026
G26A C27G	≤ 0.026
G26A C27G G59U A60U G85A	≤ 0.026
G26A C27G G88C	≤ 0.026
G26A C29G C77G	≤ 0.026
G26A C34U C56U	≤ 0.026
G26A C56U G73A	≤ 0.026
G26A C72G U76C	≤ 0.026
G26A C79A A89C	≤ 0.026
G26A C79U G88A	≤ 0.026
